From PubChem BioAssay AID1963576 (National Center for Advancing Translational Sciences (NCATS), 2024) come the findings set out here.

SMILES strings stand for the structures. Hit rate of the full screen: of about 46,000 compounds, about 60 (0.1%) were called active. Roughly 3% stayed inconclusive and do not appear here. Calls follow the shape of the dose curve; as a rule, active = well fitted inhibition curve with a large enough effect; inconclusive = small, poorly fitted or top-dose-only effect; inactive = no such curve, though single readings can be large or run the other way. This is one part of the list.

The assay can be described thus: Primary qHTS assay for Inhibitors of ovarian cancer metastasis using an organotypic tumor microenvironment (TME) model. Also: nearly all actives have a fitted effect of over 65% in size.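 As to activity change, negative = inhibition: plate controls were DMSO wells for no effect and tomatine positive control wells for full effect.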 The conditions noted are these: SKOV3ip1-GFP adhesion/invasion on 3D omental model, fluorescence; series mostly up to 45.8 µM; activity change, negative = inhibition: at the top concentration. An outline of the steps: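 A 3D layer of primary human omental fibroblasts, mesothelial cells, fibronectin and collagen I, grown 48 hr, received SKOV3ip1-GFP cells in serum-free medium plus compounds at 0.36-46 umol/L. After 2 hr RT and 16 hr 37 C, fixed adherent GFP cells were counted; normalized to DMSO and tomatine.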
Consider `CCOc1ccc(S(=O)(=O)N2CCN(c3ccccc3)CC2)cc1C(N)=O`, for which the “activity change, negative = inhibition” value was inactive: -7.01%.
For the compound `COc1ccc(OCc2nnc(-c3ccccc3)o2)cc1`, the “activity change, negative = inhibition” value was inactive: -2.3%.
Turning to `COc1ccc(S(=O)(=O)Nc2cc(-c3cn4ccccc4n3)ccc2C)cc1`, the “activity change, negative = inhibition” value is inactive: 2.09%.
Regarding `COc1ccc(NC(=O)CSC2=Nc3ccccc3C3=NC(CCC(=O)NCc4ccco4)C(=O)N23)cc1` (configuration not stated), the result was inactive.
On to `Cc1ccc2ncc3c(-c4ccccc4)nn(CC(=O)NC4CCCCC4)c3c2c1`, for which the compound was called inactive.
Consider `O=C(CC1NCCNC1=O)Nc1cccc(F)c1` (configuration not stated), for which the “activity change, negative = inhibition” value is inactive: 2.6%.
Turning to `COc1ccccc1N1CCN(CCCNC(=O)Cn2ncc3c([nH]c4ccccc43)c2=O)CC1`, the compound was classed as inactive.
As to `CCOC(=O)c1ccc(NC(=O)C2CCCN(c3ncnc4onc(C)c34)C2)cc1` (configuration not stated), the “activity change, negative = inhibition” value was inactive: 5.93%.
Take `Cc1nc2ccc(S(=O)(=O)CCC(=O)Nc3ccccc3C)cc2s1`: the “activity change, negative = inhibition” value is inactive: -5.75%.
For the compound `COc1cccc(C2C(C(=O)Nc3cccnc3)=C(C)Nc3nc(SCc4ccccc4)nn32)c1` (configuration not stated), the “activity change, negative = inhibition” value is inactive: 5.21%.
Regarding `Cc1ccc(NC(=O)Cn2c(=O)oc3cc(S(=O)(=O)N4CCCC4)ccc32)cc1F`, the “activity change, negative = inhibition” value is inactive: -1.31%.
With `COc1ccc(CCNc2oc(COc3ccc(Cl)cc3)nc2C#N)cc1OC`, the “activity change, negative = inhibition” value was inactive: -4.03%.
Same read-out and setting: for `CCc1ccc2nc(N3CCN(C(=O)c4ccco4)CC3)sc2c1` the value was inactive: -1.79%; for `COc1ccc(Nc2nnc(-c3ccc(C)c(S(N)(=O)=O)c3)c3ccccc23)cc1`, inactive: -17.3%.
As for `CC(=O)c1cccc(NC(=O)C2=CC(c3ccco3)=NS(=O)(=O)N2C)c1`, the “activity change, negative = inhibition” value is inactive: 3.49%.
As to `CCc1ccc(-c2nc(SCC(=O)NCCOC)c(-c3ccc(C)cc3)[nH]2)cc1`, the compound was classed as inactive.
`CCc1ccc(CNc2nc3nc(C)c(Cc4ccccc4)c(=O)n3[nH]2)cc1`: the “activity change, negative = inhibition” value is inactive: 0.396%.
For `CCc1ccc(CN2CCc3nc(Nc4ccc5c(c4)OCCO5)ncc3C2)cc1`, the “activity change, negative = inhibition” value was inactive: -2.68%.
Take `COc1ccccc1CNC(=O)C(=O)NCC(c1ccc2c(c1)OCO2)N1CCOCC1` (configuration not stated): the “activity change, negative = inhibition” value is inactive: -1.29%.
In the case of `Cc1cccc(S(=O)(=O)c2cn(Cc3ccccc3)c3cc(N4CCCC(C)C4)c(F)cc3c2=O)c1` (configuration not stated), the “activity change, negative = inhibition” value was inactive: -12.6%.
Regarding `CCOc1ccc(S(=O)(=O)Nc2ccc(-c3ccc(N4CCCC4)nn3)cc2)cc1`, the compound was called inactive.
With `Cc1cccc2sc(N3CCN(C(=O)c4ccco4)CC3)nc12`, the “activity change, negative = inhibition” value was inactive: 9.05%.
On to `CSc1nn(Cc2cccc(F)c2)c(N(C(C)=O)C(C)=O)c1S(=O)(=O)c1ccccc1`, for which the “activity change, negative = inhibition” value is inactive: 30.2%.
Take `CCc1cccc(C)c1NC(=O)c1cnn(-c2ccc(F)cc2)c1-n1cccc1`: the outcome was inactive.
Take `O=C1Nc2ccccc2Oc2cc(Oc3ccc(Cl)cc3)ccc21`: the “activity change, negative = inhibition” value is inactive: -24.1%.
Consider `O=C(CN1N=C(c2ccc(Cl)cc2)CCC1=O)NCc1ccc(F)cc1`, for which the compound was classed as inactive.
With `CCC(=O)N1CCc2cc(S(=O)(=O)NC(CC(C)C)C(=O)Nc3ccc(CC)cc3)ccc21` (configuration not stated), the “activity change, negative = inhibition” value is inactive: 2.52%.
